Molecules are shown by their SMILES.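 The compound was tested at five concentrations on cells cultured in 96-well plates, with a 48-hour exposure period. Abbreviation: GI50, concentration required for 50% inhibition of growth.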 Active and inactive are the calls of the source. Rule as the data show it: active = GI50 up to about 1.1 µM and inactive = higher.

The experiment has as its system NCI-H322M. Kind of experiment: inhibition of tumour cell growth, NCI panel, 48 h.
On to `COC1=CC(=O)c2c(c(COC(C)=O)cn2C)C1=O`, for which the GI50 was active: 0.282 µM. `CC(=O)CCNc1ccc(-c2cc(-c3ccc(N(C)C)cc3)nc3ccc4ccccc4c23)cc1`: the GI50 was inactive: > 100 µM.

With `CN(C)CCCn1c2c3ccccc3ccc2c2oc(=O)c3ccccc3c21`, the GI50 was inactive: 6.7 µM. For `Cn1c(=O)c2nc(CCNC(=O)c3ccccc3)[nH]c2n(C)c1=O` the value was inactive: > 100 µM; for `Cn1c(=O)[nH]c2nncnc2c1=O`, inactive: 284 µM. For `Nc1ccc2c3[nH]c4cc(N)ccc4cc-3nc2c1` the value was active: 0.333 µM; for `C[N+]1(CCN=C=NC2CCCCC2)CCOCC1`, inactive: > 100 µM; for `COC(=O)Cc1cc(OC)c(OC)cc1Br`, inactive: > 100 µM. For `NC(=O)C12CC3CC(CC(Br)(C3)C1)C2` the value was inactive: > 100 µM; for `Cc1c(C(=O)CSc2nc3ccccc3c(=O)n2-c2ccccc2)c(=O)n(-c2ccccc2)n1C`, inactive: 67.6 µM; for `CN(C)CCCNc1ccnc2c([N+](=O)[O-])cccc12`, inactive: 21.1 µM. Regarding `COC(=O)C1(C(=O)OC)CC(=O)c2c(OC(=O)c3cccc(OC)c3C#N)ccc(OC(=O)c3cccc(OC)c3C#N)c2C1`, the GI50 was inactive: > 100 µM. For `O=C(Nn1c(-c2ccccc2)nc2ccccc2c1=O)c1cccc([N+](=O)[O-])c1` the value was inactive: > 100 µM; for `COc1ccc(/C=N/N=C(\N)NO)cc1O`, inactive: 36.3 µM; for `COc1ccc2c(C)cc(N/N=C/c3ccc(OC)c4ccccc34)nc2c1`, inactive: 15.2 µM. For `CCSCC(N)C(=O)O` (stereo unspecified) the value was inactive: > 100 µM; for `O=C1C=C(N2CCCC2)C=C(N2CCCC2)C1`, inactive: > 100 µM; for `S=C(c1c[nH]c2ccccc12)N1CCCCC1`, inactive: > 100 µM.

`COc1cc(/C=C/C=C2\CCC/C(=C\C=C\c3ccc(O)c(OC)c3)C2=O)ccc1O`: the GI50 was inactive: 13.5 µM.

In the case of `CC(=O)NC1C(OCc2ccccc2)OC(CO)C(O)C1OCC(=O)NC(C)C(=O)NC(CCC(=O)NCCCCCNc1c2ccccc2nc2cccc([N+](=O)[O-])c12)C(N)=O` (stereo unspecified), the GI50 is active: < 0.0001 µM. For `CC1(F)C=CC(=O)C=C1` the value was inactive: > 100 µM; for `CC1NC(=O)C(C)C(c2ccccc2)N(N=O)C1c1ccccc1` (stereo unspecified), inactive: > 100 µM; for `N#CCCN(CCC#N)c1ccc(/C=C2\N=C(c3ccccc3)N(c3ccccc3)C2=O)cc1`, inactive: > 100 µM. Consider `COc1ccc(/C=C(\NC(=O)c2ccccc2)c2nc3ccccc3[nH]2)cc1OC`, for which the GI50 was inactive: > 100 µM.

On to `Cc1cc2c3c(coc3c1-c1c(C)cc3c4c(coc14)C(=O)C(O)=C3C(C)C)C(=O)C(O)=C2C(C)C`, for which the GI50 was inactive: 5.61 µM.

With `COc1cc2c(cc1OC)-c1cc3ccccc3c[n+]1CC2`, the GI50 is inactive: > 100 µM. Take `C=CC[C@@H](N)C(=O)N(C)[C@@H](C)[C@@H](O)c1ccccc1`: the GI50 is inactive: > 100 µM. For `CCCCOC(=O)CNC(=O)OC/C=C/C#CC#C/C=C/COC(=O)NCC(=O)OCCCC` the value was inactive: > 10 µM; for `CCC(=O)N1C(=S)SC[C@H]1C(=O)OC`, inactive: > 100 µM; for `COCc1nc(C#N)c(N)o1`, inactive: > 10 µM.

As for `Cc1cc(Cl)ccc1C1OC(=O)c2c1ccc1ccccc21` (stereo unspecified), the GI50 was inactive: > 100 µM. Consider `CC(CCCOC(c1ccccc1)(c1ccccc1)c1ccccc1)OC(=O)Nc1ccccc1` (stereo unspecified), for which the GI50 is inactive: 14.5 µM. As for `Cc1cc2c(c(=O)o1)C1=S(SC(c3ccccc3)=C1)S2` (stereo unspecified), the GI50 is inactive: 13.9 µM. In the case of `CC(=O)SSC1(Cl)C(C)(C)C(Cl)(SSC(C)=O)C1(C)C` (stereo unspecified), the GI50 was inactive: > 100 µM. As to `COC(=O)C(Cc1nc2ccccc2nc1O)/C(=N\NC(C)(C)C)C(=O)Nc1c(C)cc(Br)cc1C` (stereo unspecified), the GI50 was inactive: 64.6 µM. For `Fc1ccc(Oc2nc3ccccc3nc2-c2ccccc2)cc1` the value was inactive: > 100 µM; for `C1=CC(=P(c2ccccc2)(c2ccccc2)c2ccccc2)C=C1`, inactive: 12.1 µM; for `CCOC(=O)/C(=C\c1ccc(N(CCC#N)CCC#N)cc1C)NC(=O)/C=C/c1ccccc1`, inactive: > 100 µM. As to `O=C(O)c1nc2cc(C(F)(F)F)ccc2[nH]c1=O`, the GI50 was inactive: > 100 µM. For `COC(=O)C1=C(C(=O)OC)C23CC4CCC2(C(=O)C1O3)C4(C)C` (stereo unspecified) the value was inactive: > 100 µM. As to `O=c1/c(=C/c2c(O)ccc3ccccc23)sc2nc3ccccc3n12`, the GI50 was inactive: > 100 µM. For `OC1(c2ccc(Cl)cc2)c2ccc(CN3CCCC3)cc2C2=NCCN21` (stereo unspecified) the value was inactive: 13 µM; for `Cc1ccc2oc(=O)c(-c3ccccc3)nc2c1`, inactive: 29.9 µM; for `Cc1cc2c(cc1Cl)SC(NNc1cnc3ccccc3n1)=NS2(=O)=O`, inactive: 34 µM. For `CCCCCOC(=O)C(=O)Nc1[nH]nnc1C(N)=O` the value was inactive: > 100 µM; for `COc1cc2c(cc1OC)C1Cc3cc(OC)c(OC)cc3C(C2)O1`, inactive: > 100 µM; for `C=C(CC[C@@H](C)[C@H]1CC[C@@]2(C)C3=C(CC[C@]12C)[C@@]1(C)CC[C@H](O)[C@@H](C)C1CC3)C(C)C` (stereo partly specified), inactive: 1.2 µM. On to `O=C(CNC(c1ccccc1)(c1ccccc1)c1ccccc1)NC1CCCCC1NC(=O)CNC(c1ccccc1)(c1ccccc1)c1ccccc1` (stereo unspecified), for which the GI50 is inactive: > 100 µM. Take `c1ccc(C(=NCCC2CNc3ccccc32)c2ccccc2)cc1` (stereo unspecified): the GI50 is inactive: > 100 µM. Take `COCOc1ccc(OC)cc1`: the GI50 is inactive: > 100 µM.

On to `CC(=O)Nc1ccc(C(=O)NN2C(=O)C(Cl)C2c2ccccc2)cc1` (stereo unspecified), for which the GI50 is inactive: > 100 µM. Take `CCC1(O)CC(O)c2c(O)c3c(c(O)c2C1C(=O)OC)C(=O)c1cccc(O)c1C3=O` (stereo unspecified): the GI50 was inactive: 3.72 µM. For `Cn1c2ccccc2n2c3ncccc3c(=O)cc12` the value was inactive: 53.8 µM; for `COc1ccc(/C=N/N=C(N)N)c(C(=O)O)c1OC`, inactive: > 10 µM; for `CC(=O)c1cccc(Nc2nc3ccccc3c3occc23)c1`, inactive: 25.5 µM. For the compound `CCCCN(CCCC)CC(C(=O)Nc1ccc([N+](=O)[O-])cc1[N+](=O)[O-])/C(C)=N\NC(=O)C[N+](C)(C)C` (stereo unspecified), the GI50 was inactive: > 100 µM.

Consider `O=c1c2cn[nH]c2nc2scc(-c3ccc(Cl)cc3)n12`, for which the GI50 is inactive: > 100 µM. For `CNc1nc2c(C)ccc3nc(N(C)C)[nH]c3c-2n1` the value was inactive: 51.8 µM; for `COP(=O)(/C=C/c1cc(C(=O)OCc2ccccc2)n(S(=O)(=O)c2ccccc2)c1)OC`, inactive: > 100 µM.

Consider `CCOC(=O)c1c(NC(=O)c2ccccc2)sc2c1CCCC2`, for which the GI50 was inactive: > 100 µM.

`COc1cc(C2SCC(=O)N2c2ccccc2Cl)cc(OC)c1OC` (stereo unspecified): the GI50 is inactive: > 100 µM. For `O=C(O)/C(=C/c1ccccc1[N+](=O)[O-])c1ccccc1`, the GI50 was inactive: > 100 µM.

As to `CC1(C)CC(C2=NCCO2)CC(C)(C)N1`, the GI50 is inactive: > 100 µM. For the compound `CCOC(=O)NC(=O)c1cn(CCN2CCN(C(=O)CCCCCCCCCCC(=O)N3CCN(CCn4cc(C(=O)NC(=O)OCC)c(=O)[nH]c4=O)CC3)CC2)c(=O)[nH]c1=O`, the GI50 is inactive: > 100 µM. For `CC(C)c1cccc(C(C)C)c1NC(=O)C(=O)C1CCC2=C(Sc3ccccc3N2)C1=O` (stereo unspecified) the value was inactive: > 100 µM. For `COc1ccc(OC(=O)N2C/C(=C\c3ccccc3)C(=O)/C(=C/c3ccccc3)C2)cc1` the value was inactive: 25.7 µM. For `COc1ccc(C2=NN(C(=O)c3cccnc3)C(O)(c3cc(F)c(Cl)cc3Cl)C2)cc1OC` (stereo unspecified) the value was inactive: 23.8 µM; for `Cc1ccc(NC(=O)CC(=O)N2N=C(N(C)c3ccccc3)CC2c2ccccc2)cc1` (stereo unspecified), inactive: > 100 µM; for `CCSCCC(N)C(=O)O` (stereo unspecified), inactive: > 100 µM. For `Clc1cccc(/C=N/C23CC4CC(CC(C4)C2)C3)c1Cl`, the GI50 is inactive: > 10 µM. For `COc1cc2c(oc(=O)c3cc4ccoc4c(OC)c32)c2cccc(O)c12` the value was inactive: > 100 µM; for `CSC1=C(C)S/C(=C\c2ccc(/C=C3\SC(C)=C(SC)S3)cc2)S1`, inactive: > 100 µM; for `COc1ccc(C[C@@H]2NC[C@@H](O)[C@@H]2OC(C)=O)cc1`, active: 0.0191 µM.

Consider `COc1ccc2c(c1)CCN1C3=C(CCC3)C(=O)C[C@@H]21`, for which the GI50 is inactive: > 100 µM.

Take `CS(C)(=O)=Nn1c(=O)n2n(c1=O)C1c3ccccc3C2c2ccccc21`: the GI50 was inactive: > 100 µM.

For `CC(C)c1cc(OCC(O)CO)cc(C(C)C)c1` (stereo unspecified), the GI50 is inactive: > 100 µM. For `CC(=O)NNC1=NN(C(C)=O)C2(S1)C(=O)Nc1ccccc12` (stereo unspecified) the value was inactive: > 100 µM; for `COCn1c(=O)n(C)c(=O)c2c1nc1c(c(=O)n(C)c(=O)n1COC)[n+]2[O-]`, inactive: 22.3 µM.

In the case of `CCN(CC)Cc1ccc(C(=S)Nc2ccc(Cl)cc2)s1`, the GI50 is inactive: 11.4 µM. For `O=C(c1ccco1)N(C(=S)N1CCN(c2ccccc2)CC1)C1CCCCC1` the value was inactive: > 100 µM; for `CCOC(=O)Nc1cc2c(c(N)n1)N=C(c1ccc3ccccc3c1)CN2`, active: 0.668 µM. For `N/C(CSCCSC/C(N)=N/O)=N\O` the value was inactive: > 100 µM; for `CC(=O)NC(CCCNC(=O)N(C)N=O)C(=O)NCc1ccccc1` (stereo unspecified), inactive: > 100 µM; for `CON(C)C(=O)C(C)N(Cc1ccccc1)Cc1ccccc1` (stereo unspecified), inactive: > 100 µM. For `C=C1CC(Cn2ccc(=O)[nH]c2=O)(c2ccc(-c3ccccc3)cc2)OC1=O` (stereo unspecified) the value was inactive: 13.3 µM; for `COc1cc2cc(C(=O)N3CC(CCl)c4ccc(O)cc43)[nH]c2c(OC)c1OC` (stereo unspecified), active: 0.0235 µM.

(Values after ChEMBL document CHEMBL1201862, “PubChem BioAssay data set” (2004).)
